Results as given in patent publication US3956314A, “Derivatives of 2-pyrrolidinone” (U.C.B., Societe Anonyme, priority 1970, dated 1976).
The name of at least one read-out is uncertain.

Test system: Wistar rats
Assay: anxiolytic action: shuttle box conditioning test, painful electric shocks, second sequence
Type: in vivo
Settings: half an hour before the second sequence
Procedure: Wistar rats (weighing 100 g. ± 20 g.) are first permitted to become accustomed, during 10 minutes, to conditioning cages of the shuttle box type, after which they are subjected to a first sequence of 20 painful electric shocks of 3 seconds on their paws repeated every 30 seconds. During this first sequence, the rats ran away before the end of the shock about 15 times out of 20 shocks.
On the other hand, if these same animals are subjected to a sequence of shocks 4 hours later, paradoxically, instead of improving their performance (as in the course of a normal training) a reduction in the number of evasions is found: the animals have become set and are less successful in running away before the end of the shocks. This behavior is attributed to an anxiety state induced by the experimental situation.
Intraperitoneal administration of an anxiolytic substance to the rats, half an hour before the second sequence is carried out, improves their performance (increase in the number of evasions before the end of the shock).
A group of rats, to which a substance to be tested is administered, is compared with a group of control rats, which has been injected with physiological serum under the same conditions.
The activity of a substance tested is expressed by the difference between the number of evasions found in the group of rats, to which a substance to be tested has been administered, and the number of evasions found in the group of control rats, during the second sequence of shocks. Generally, a mean decrease of 4 evasions is found per group of 20 control rats during the second sequence. The compounds tested, which increase the number of evasions found in the control rats by at least 3 evasions, are considered as having an anxiolytic activity. Those compounds, which increase the number of evasions found in the control rats by 2 evasions are potentially active.
In the test the minimum dose is sought which increases the performances of the rats treated in comparison with the control rats.
In the following Table there is shown in the first column the compound tested; in the second column, the dose administered (in mole per kg animal body weight) and in the third column the improvement in the performance (i.e. the difference between the number of evasions found in the treated rats and the number of evasions found in the control rats during the second sequence of shocks).

Compound: O=C1NC[C@H](c2ccc(Cl)cc2)[C@@H]1c1ccccc1 (relative stereo) [E, 4-p-chlorophenyl-3-phenyl-2-pyrrolidinone (cis isomer)]
- Improvement in the performance (difference between number of evasions in treated and control rats, second sequence of shocks) (dose 0.018, intraperitoneal): +4 evasions

Compound: O=C1NC[C@H](c2ccc(Cl)cc2)[C@H]1c1ccccc1 (relative stereo) [F, 4-p-chlorophenyl-3-phenyl-2-pyrrolidinone (trans isomer)]
- Improvement in the performance (difference between number of evasions in treated and control rats, second sequence of shocks) (dose 0.01, intraperitoneal): +2 evasions

Compound: CCC1C(=O)NCC1c1ccc(Cl)cc1 [A, 4-p-chlorophenyl-3-ethyl-2-pyrrolidinone (cis isomer)]
- Improvement in the performance (difference between number of evasions in treated and control rats, second sequence of shocks) (dose 0.10, intraperitoneal): +3 evasions

Compound: CCC1C(=O)NCC1c1ccc(Cl)cc1 [B, 4-p-chlorophenyl-3-ethyl-2-pyrrolidinone (trans isomer)]
- Improvement in the performance (difference between number of evasions in treated and control rats, second sequence of shocks) (dose 0.10, intraperitoneal): +2 evasions

Compound: O=C1NCC(c2ccccc2Cl)C1c1ccccc1 (stereo not drawn) [G, 4-o-chlorophenyl-3-phenyl-2-pyrrolidinone]
- Improvement in the performance (difference between number of evasions in treated and control rats, second sequence of shocks) (dose 0.056, intraperitoneal): +3 evasions

Compound: CN1CC(c2ccc(Cl)cc2)C(c2ccccc2)C1=O (stereo not drawn) [I, 4-p-chlorophenyl-N-methyl-3-phenyl-2-pyrrolidinone]
- Improvement in the performance (difference between number of evasions in treated and control rats, second sequence of shocks) (dose 0.0056, intraperitoneal): +3 evasions

Compound: O=C1NCC(c2ccc(F)cc2)C1c1ccccc1 (stereo not drawn) [J, 4-p-fluorophenyl-3-phenyl-2-pyrrolidinone]
- Improvement in the performance (difference between number of evasions in treated and control rats, second sequence of shocks) (dose 0.032, intraperitoneal): +6 evasions

Compound: O=C1NCC(c2ccc(Cl)cc2)C1c1ccccc1Cl (stereo not drawn) [K, 3-o-chlorophenyl-4-p-chlorophenyl-2-pyrrolidinone]
- Improvement in the performance (difference between number of evasions in treated and control rats, second sequence of shocks) (dose 0.0075, intraperitoneal): +4 evasions

Compound: O=C1CC(c2ccccc2)(c2ccc(Cl)cc2)CN1 (stereo not drawn) [L, 4-p-chlorophenyl-4-phenyl-2-pyrrolidinone]
- Improvement in the performance (difference between number of evasions in treated and control rats, second sequence of shocks) (dose 0.10, intraperitoneal): +2 evasions

Compound: O=C1C(c2ccccc2)C(c2ccc(Cl)cc2)CN1Cc1ccccc1 (stereo not drawn) [M, N-benzyl-4-p-chlorophenyl-3-phenyl-2-pyrrolidinone]
- Improvement in the performance (difference between number of evasions in treated and control rats, second sequence of shocks) (dose 0.10, intraperitoneal): +2 evasions

Compound: CCC1NC(=O)C(c2ccccc2)C1c1ccc(Cl)cc1 (stereo not drawn) [N, 4-p-chlorophenyl-5-ethyl-3-phenyl-2-pyrrolidinone]
- Improvement in the performance (difference between number of evasions in treated and control rats, second sequence of shocks) (dose 0.032, intraperitoneal): +5 evasions

Compound: C#CCN1CC(c2ccc(Cl)cc2)C(c2ccccc2)C1=O (stereo not drawn) [O, 4-p-chlorophenyl-3-phenyl-N-(2-propynyl)-2-pyrrolidinone]
- Improvement in the performance (difference between number of evasions in treated and control rats, second sequence of shocks) (dose 0.018, intraperitoneal): +4 evasions

Compound: O=C1C(c2ccccc2)C(c2ccc(Cl)cc2)CN1C1CCCC1 (stereo not drawn) [P, 4-p-chlorophenyl-N-cyclopentyl-3-phenyl-2-pyrrolidinone]
- Improvement in the performance (difference between number of evasions in treated and control rats, second sequence of shocks) (dose 0.10, intraperitoneal): +3 evasions

Compound: C=CCC1(c2ccc(Cl)cc2)CC(c2ccccc2)NC1=O (stereo not drawn) [Q, 3-allyl-3-p-chlorophenyl-5-phenyl-2-pyrrolidinone]
- Improvement in the performance (difference between number of evasions in treated and control rats, second sequence of shocks) (dose 0.032, intraperitoneal): +3 evasions

Compound: O=C1NCC(c2cccc(C(F)(F)F)c2)C1c1ccccc1 (stereo not drawn) [R, 3-phenyl-4-m-trifluoromethylphenyl-2-pyrrolidinone]
- Improvement in the performance (difference between number of evasions in treated and control rats, second sequence of shocks) (dose 0.10, intraperitoneal): +4 evasions
